# Test results from PubChem BioAssay AID1508623 (National Center for Advancing Translational Sciences (NCATS), 2021).
# The campaign covered roughly 48,000 compounds. About 450 (0.94%) were called active. About 19% were inconclusive and are not listed. Calls follow the shape of the dose curve; as a rule, active = well fitted inhibition curve with a large enough effect; inconclusive = small, poorly fitted or top-dose-only effect; inactive = no such curve, though single readings can be large or run the other way. Some of the results follow.
# Assay: Primary qHTS for Identification of Small Molecule Inhibitors of Huntingtin Promoter Activity; also: nearly all actives have a fitted effect of over 50% in size
# Details: HEK293 HTT promoter firefly luciferase reporter (activity 0% = vehicle and -100% = no light), 24 h; series mostly up to 57.5 µM; activity change, negative = inhibition: at the top concentration
# How it was run: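 Luminescence was read after Dual-Glo reagent and a 10 min room-temperature incubation. Values were normalized to vehicle (0% activity) and zero RLU (-100% activity). Reporter HEK293 cells had been exposed to compounds (up to 57.5 uM final) for 24 h.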
# Potency is read from the fitted curve at half-maximal effect.
Structure (SMILES),"activity change, negative = inhibition",Potency
CC(=O)N1N=C(c2ccc(C)cc2)CC1c1cn(-c2ccccc2)nc1-c1cccs1 (stereo not drawn),inactive: -9.67%,–
CCN(CC)S(=O)(=O)c1ccc2c(c1)c(=O)c(C(=O)N1CCN(c3cccc(Cl)c3)CC1)cn2C,inactive: -4.64%,–
Cn1c(=O)oc2cc(S(=O)(=O)NC(Cc3ccccc3)C(=O)NCc3ccccc3Cl)ccc21 (stereo not drawn),inactive: -4.15%,–
CCOc1ccccc1CNC(=O)C1CCN(c2nc3ccccc3nc2C(F)(F)F)CC1,inactive: -12.8%,–
COc1ccc(-c2n[nH]c3c2cnc2cc(OC)c(OC)cc23)cc1,inactive: 7.59%,–
Cc1ccc(CSC2=Nc3ccccc3C3=NC(CC(=O)NCc4ccc5c(c4)OCO5)C(=O)N23)cc1 (stereo not drawn),inactive: -0.433%,–
COc1cc(OC)c(NC(=O)c2ccc3c(c2)N(Cc2ccc(C)cc2)CCS3)cc1Cl,inactive: -13.6%,–
Cc1cccc(C2N=C(N)Nc3nc4ccccc4n32)c1 (stereo not drawn),inactive: -20.1%,–
COc1ccc(CCCc2nnc(SCC(=O)Nc3ccc(C)cc3)o2)cc1C,inactive: -17.6%,–
Cc1ccc(-n2ncc(C(=O)NC3CCN(Cc4ccccc4)CC3)c2C2CCN(C(=O)OC(C)(C)C)CC2)cc1C,inactive: -21.6%,–
CCCS(=O)(=O)Nc1cc(-c2cn3ccc(C)cc3n2)ccc1C,inactive: 49.4%,–
CCOc1ccccc1NC(=O)Cn1c(=O)n(Cc2cccs2)c(=O)c2cccnc21,inactive: -10.1%,–
Fc1ccc(-c2nn(-c3ccc(Cl)cc3)c3c2cnc2ccc(F)cc23)cc1,inactive: 1.29%,–
COc1ccc(-n2c(=O)c3ccccc3n(Cc3ccccc3Cl)c2=O)cc1,inactive: -13.4%,–
CC(Sc1nc(=O)cc(N)n1CCc1ccccc1)C(=O)Nc1cccc(Cl)c1 (stereo not drawn),inactive: 21.1%,–
COc1ccc(C(=O)Nc2nc3n(n2)C(c2ccc(Cl)cc2)C=C(c2ccccc2)N3)cc1OC (stereo not drawn),inactive: -8.03%,–
Cc1ccc(C)c(CN2C(=O)c3ccccc3S(=O)c3ccc(C(=O)N4CCOCC4)cc32)c1 (stereo not drawn),inactive: -23.9%,–
Cc1ccc(S(=O)(=O)c2nnn3c2nc(N2CCOCC2)c2sccc23)cc1C,inactive: -8.94%,–
COc1ccccc1N1CCN(S(=O)(=O)c2c(C)sc3ncn(CC(=O)Nc4ccc(C)cc4Br)c(=O)c23)CC1,inactive: -11%,–
Cc1ccc(CNC(=O)C2CCCN(c3ncnc4onc(-c5ccc(F)cc5)c34)C2)cc1 (stereo not drawn),inactive: -12.5%,–
CN1CC(=O)Nc2cc(C(=O)O)ccc21,inactive: -10.9%,–
COc1ccc(OC)c(NC(=O)Cn2c(=O)cc(C)c3c(C)nn(-c4cccc(Cl)c4C)c32)c1,inactive: -19.6%,–
CCOc1ccccc1C(=O)Nc1ccc(S(=O)(=O)N(Cc2ccccc2)c2ccccc2)cc1,inactive: -11.3%,–
CCOC(=O)c1ccccc1NC(=O)Cn1ccn2nc(-c3ccc(OCC)cc3)cc2c1=O,inactive: -10.9%,–

Structure (SMILES),"activity change, negative = inhibition",Potency
Cc1ccccc1-c1noc(-c2nnn(-c3ccccc3C)c2N)n1,inactive: 78.5%,–
Cc1ccc(-n2cc(C(=O)OCc3ccc(F)c(F)c3)c3ccccc3c2=O)cc1,inactive: -16.7%,–
CCCN1Cc2cccc(C(=O)Nc3ccccc3C(=O)OC)c2C1=O,inactive: -23.9%,–
CCOc1ccc(NC(=O)CN2CCN(CC(=O)Nc3ccc(F)cc3F)CC2)cc1,inactive: -5.81%,–
COc1cc(C(=O)N2CCN(C(=O)COc3cccc(C)c3)CC2)cc(OC)c1OC,inactive: 2.29%,–
COc1ccc(N2CCN(C(=O)c3cnn(-c4ccc(OC)cc4)c3C3CCN(C(=O)OC(C)(C)C)CC3)CC2)cc1,inactive: -0.553%,–
Cc1cccc(C(=O)N(Cc2ccccc2F)C2CCS(=O)(=O)C2)c1 (stereo not drawn),inactive: 2.59%,–
COc1ccc(Cc2nc3c4cnn(-c5cccc(F)c5)c4ncn3n2)cc1,inactive: -16.2%,–
COC(=O)c1c(NC(=O)COc2cccc(C(F)(F)F)c2)sc2c1CCCC2,inactive: -5.28% [at 11.5 µM],–
CCCNC(=O)N1CCCN(S(=O)(=O)c2ccc3c(ccn3CC)c2)CC1,inactive: -31.8%,–
Cc1c(Cl)cccc1-c1ccc(/C=C(\C#N)c2nc3ccccc3[nH]2)o1,inactive: -16.6%,–
CCCCOc1cccc(C(=O)N2CCN(CCc3ccncc3)CC2)c1,inactive: -15%,–
CCOC(=O)c1c(NC(=O)c2ccc(S(=O)(=O)N(CC)CC)cc2)sc2c1CCCCC2,inactive: -5.47%,–
CCc1ccc(CN(Cc2cn[nH]c2-c2ccc(OC)cc2)C(=O)Nc2ccc(Br)cc2)cc1,–,active: 14.1 µM
CN(C)c1ccc(C(CNS(=O)(=O)c2ccc(F)cc2F)N2CCOCC2)cc1 (stereo not drawn),inactive: -13%,–
Cc1ccc(CCNC(=O)CN(c2ccc(C(C)C)cc2)S(=O)(=O)c2c(C)nn(C)c2C)cc1,inactive: 10.9%,–
CCOc1ccc(Cc2cc([C@@H]3O[C@H](CO)[C@@H](O)[C@H](O)[C@@H]3O)ccc2Cl)cc1,inactive: -2.72%,–
CCN(CC)C(=O)CSc1nc2cc3c(cc2c(=O)n1CCCC(=O)NCc1ccc(OC)cc1)OCO3,inactive: -17.4%,–
O=C(NCCC1=CCCCC1)c1ccc2c(c1)N(Cc1ccccc1)C(=O)c1ccccc1S2=O (stereo not drawn),inactive: -29.8%,–
CCn1c(SCC(=O)Nc2c(C)cccc2C)nnc1-c1nonc1NC(C)=O,inactive: -19.3%,–
Cc1ccc(C(=O)N2CCCCC2CCN2CCCCC2)cc1 (stereo not drawn),inactive: -0.494%,–
Cc1ccc(O)cc1,inactive: -2.31%,–
Cc1cccc(NC(=O)Cn2c(=O)c3cccn3c3ccccc32)c1C,inactive: -11.7%,–
COc1cc2c(cc1-c1c(C)noc1C)ncc1[nH]c(=O)n([C@H](C)c3ccccn3)c12,inactive: -32.9%,–

Structure (SMILES),"activity change, negative = inhibition",Potency
COc1ccc(-c2csc(-c3c(N)c(C(=O)c4ccccc4)n4ccccc34)n2)cc1OC,inactive: -8.91%,–
COc1ccccc1N1CCN(C(=O)CSc2nc3ccccc3nc2Cc2ccc(C)cc2)CC1,inactive: -0.144%,–
COc1cc(NS(=O)(=O)c2cc(Br)cc3c2N(C(=O)C2CC2)CC3)cc(OC)c1,–,active: 15.8 µM
CN(C)c1nc(N(C)C)nc(N(C)C)n1,inactive: 13.5%,–
CCN(CCCNC(=O)c1nn(-c2ccc(OC)c(Cl)c2)c(=O)c2c1c1ccccc1n2C)c1ccccc1,inactive: -10.2%,–
Cc1ccc(CN2CCN(C3CCN(S(=O)(=O)N(C)C)CC3)C(=O)C2=O)cc1,inactive: -10.9%,–
CC1CCN(C(=O)Cn2c(SCC(=O)Nc3ccc(F)cc3)nc3ccccc32)CC1,inactive: -30.2%,–
COc1ccc(OC)c(CNC(=O)CSc2c3c(nc4cc(Cl)ccc24)CCCC3)c1,inactive: -11.5%,–
CCN(Cc1ccccc1)C(=O)Cn1c(=O)n(-c2cccc(C)c2)c(=O)c2c1c1cc(OC)ccc1n2C,inactive: -11.9%,–
CCOC(=O)C1=C(CN2CCN(C)CC2)NC(=O)NC1c1ccc(F)cc1 (stereo not drawn),inactive: -2.43%,–
COc1ccc(N2C(N)=C(C#N)C(c3cc(CN4CCOCC4)cs3)C3=C2CCCC3=O)cc1 (stereo not drawn),inactive: -6.14%,–
Cc1nc2c(C(=O)NCCc3ccc(Cl)cc3)cnn2c(C)c1Cc1ccc(F)cc1,inactive: -28.6%,–
CC(C)NC(=O)C1CCN(C(=O)c2cnn(-c3ccccc3)c2-n2cccc2)CC1,inactive: -12.6%,–
COc1ccc(NS(=O)(=O)c2ccc(-n3cccn3)cc2)cc1OC,–,active: 7.94 µM
CCCSc1nc2sc3c(c2c(=O)n1-c1ccc(C)c(Cl)c1)CCN(C(C)=O)C3,inactive: -31.4%,–
CN(C(=O)c1cc2nc(-c3ccc4c(c3)OCO4)cc(C(F)(F)F)n2n1)c1ccc(OC(F)(F)F)cc1,inactive: 6.37%,–
Cn1nc(C(=O)NCCc2ccc(Cl)cc2)c2c1-c1ccccc1SC2,inactive: -11.4%,–
CSc1nnc2n(-c3cccc(C)c3)c(=O)c3c4c(sc3n12)CCCC4,inactive: -3.82%,–
COc1ccc(S(=O)(=O)c2c(O)c(C)cc(NC(=O)c3ccccc3)c2C(C)C)cc1,inactive: -15.5%,–
COc1ccccc1N1CCN(C(=O)c2ccc(Nc3nc4ccccc4n4nnnc34)cc2)CC1,inactive: -24.7%,–
CCn1c(=O)n(CC)c2cc(N3CCCC3)c(NC(=O)Nc3cc(C)cc(C)c3)cc21,inactive: -16.4%,–
Cc1cccc(-c2nnc(SCC(=O)N3CCCCC3)o2)c1,inactive: 71.3%,–
Cc1cccn2c(=O)cc(COc3cccc(NC(=O)c4cccc(Cl)c4)c3)nc12,inactive: -0.925%,–
O=C(Nc1ccccc1F)c1oc2ccccc2c1NC(=O)c1c(F)cccc1F,inactive: -19.3%,–

Structure (SMILES),"activity change, negative = inhibition",Potency
Cc1c(C(=O)Nc2cccc(-c3nc4ccccc4s3)c2)oc2ccc(F)cc12,inactive: 6.19%,–
COc1cc(-c2nc(C(N)=O)c3c(n2)n(-c2cccc(C)c2)c(=O)n3C)cc(OC)c1OC,inactive: -8.55%,–
CCn1c(CN2CCCCC2)nc2cc(NC(=O)c3cccc([N+](=O)[O-])c3)ccc21,inactive: -7.43%,–
Cc1ccc(CNC(=O)c2nn(C)c3c2CSc2ccc(C)cc2-3)cc1,inactive: -28.8%,–
COC(=O)c1ccccc1NC(=O)c1ccc(=O)n(Cc2cccc(C)c2)c1,inactive: -21.5%,–
Cc1ccc(CCNC(=O)CSCc2nc(-c3ccc(C)cc3)oc2C)cc1,inactive: -28.4%,–
CC(C)c1ccc(NC(=O)Cn2c3ncccc3c(=O)n2-c2ccccc2)cc1,inactive: -14.3%,–
CC(C)c1ccc(N2C(=O)CSC23C(=O)N(Cc2ccccc2)c2ccccc23)cc1 (stereo not drawn),inactive: -16.3%,–
Cc1cc(NS(=O)(=O)c2ccc3oc(=O)c4ncn(C)c4c3c2)ccc1Br,inactive: -11.4%,–
Cc1ccc(NC(=O)Cn2c(=O)n(Cc3nc(C)no3)c(=O)c3cc4c(cc32)OCO4)cc1,inactive: -18.5%,–
O=C(/C=C/c1ccccc1Cl)Nc1nc(-c2cccs2)ns1,inactive: 33.3%,–
COc1ccc(NC(=O)N2CCN(S(=O)(=O)c3ccc4c(ccn4C)c3)CC2)c(OC)c1,inactive: -27.6%,–
COc1cccc(CNC(=O)C(C)n2c(=O)cc(-c3ccccc3)c3c(C)nn(C)c32)c1 (stereo not drawn),inactive: 0%,–
O=C(Cn1cc(SCc2c(F)cccc2Cl)c2ccccc21)N1CCCC1,inactive: 9.94%,–
CCCC(CCC)C(=O)NC1CC(=O)N(c2ccc3c(c2)OCCO3)C1 (stereo not drawn),inactive: -17.2%,–
Cc1ccc(/C=C(\C#N)c2nc3ccccc3c(=O)[nH]2)cc1,inactive: 5.22%,–
COCCOC(=O)c1c(-c2ccccc2)c(-c2ccccc2)nn(C)c1=O,inactive: -5.16%,–
CCOc1ccc(CC(=O)Nc2c(C(=O)c3ccccc3)oc3ccc(OC)cc23)cc1OCC,inactive: -6.57%,–
CCc1ccccc1NC(=O)Cn1c(=O)n(Cc2ccc(OC)cc2)c(=O)c2oc3ccccc3c21,inactive: 6.71%,–
CCOc1ccc(CC(=O)NCC(c2cccs2)S(=O)(=O)c2ccc(F)c(C)c2)cc1 (stereo not drawn),inactive: -7.42%,–
O=C(COc1ccc(Cl)cc1)Nc1ccccc1OCc1cc(=O)n2ccccc2n1,inactive: -2.38%,–
